Results published in publication PMC8726484.
No constants are given. Whether binding was seen depends on the method and setting. Binding seen in cells or lysates may run through a third protein. Some binding calls cover weakened binding; strength is not graded here. For some assays here: Where a sequence is shown, tags or fusion partners need not be part of it.

Protein sequences, listed by entry. Tags and fused reporters are not part of them.
UniProt Q9BX84: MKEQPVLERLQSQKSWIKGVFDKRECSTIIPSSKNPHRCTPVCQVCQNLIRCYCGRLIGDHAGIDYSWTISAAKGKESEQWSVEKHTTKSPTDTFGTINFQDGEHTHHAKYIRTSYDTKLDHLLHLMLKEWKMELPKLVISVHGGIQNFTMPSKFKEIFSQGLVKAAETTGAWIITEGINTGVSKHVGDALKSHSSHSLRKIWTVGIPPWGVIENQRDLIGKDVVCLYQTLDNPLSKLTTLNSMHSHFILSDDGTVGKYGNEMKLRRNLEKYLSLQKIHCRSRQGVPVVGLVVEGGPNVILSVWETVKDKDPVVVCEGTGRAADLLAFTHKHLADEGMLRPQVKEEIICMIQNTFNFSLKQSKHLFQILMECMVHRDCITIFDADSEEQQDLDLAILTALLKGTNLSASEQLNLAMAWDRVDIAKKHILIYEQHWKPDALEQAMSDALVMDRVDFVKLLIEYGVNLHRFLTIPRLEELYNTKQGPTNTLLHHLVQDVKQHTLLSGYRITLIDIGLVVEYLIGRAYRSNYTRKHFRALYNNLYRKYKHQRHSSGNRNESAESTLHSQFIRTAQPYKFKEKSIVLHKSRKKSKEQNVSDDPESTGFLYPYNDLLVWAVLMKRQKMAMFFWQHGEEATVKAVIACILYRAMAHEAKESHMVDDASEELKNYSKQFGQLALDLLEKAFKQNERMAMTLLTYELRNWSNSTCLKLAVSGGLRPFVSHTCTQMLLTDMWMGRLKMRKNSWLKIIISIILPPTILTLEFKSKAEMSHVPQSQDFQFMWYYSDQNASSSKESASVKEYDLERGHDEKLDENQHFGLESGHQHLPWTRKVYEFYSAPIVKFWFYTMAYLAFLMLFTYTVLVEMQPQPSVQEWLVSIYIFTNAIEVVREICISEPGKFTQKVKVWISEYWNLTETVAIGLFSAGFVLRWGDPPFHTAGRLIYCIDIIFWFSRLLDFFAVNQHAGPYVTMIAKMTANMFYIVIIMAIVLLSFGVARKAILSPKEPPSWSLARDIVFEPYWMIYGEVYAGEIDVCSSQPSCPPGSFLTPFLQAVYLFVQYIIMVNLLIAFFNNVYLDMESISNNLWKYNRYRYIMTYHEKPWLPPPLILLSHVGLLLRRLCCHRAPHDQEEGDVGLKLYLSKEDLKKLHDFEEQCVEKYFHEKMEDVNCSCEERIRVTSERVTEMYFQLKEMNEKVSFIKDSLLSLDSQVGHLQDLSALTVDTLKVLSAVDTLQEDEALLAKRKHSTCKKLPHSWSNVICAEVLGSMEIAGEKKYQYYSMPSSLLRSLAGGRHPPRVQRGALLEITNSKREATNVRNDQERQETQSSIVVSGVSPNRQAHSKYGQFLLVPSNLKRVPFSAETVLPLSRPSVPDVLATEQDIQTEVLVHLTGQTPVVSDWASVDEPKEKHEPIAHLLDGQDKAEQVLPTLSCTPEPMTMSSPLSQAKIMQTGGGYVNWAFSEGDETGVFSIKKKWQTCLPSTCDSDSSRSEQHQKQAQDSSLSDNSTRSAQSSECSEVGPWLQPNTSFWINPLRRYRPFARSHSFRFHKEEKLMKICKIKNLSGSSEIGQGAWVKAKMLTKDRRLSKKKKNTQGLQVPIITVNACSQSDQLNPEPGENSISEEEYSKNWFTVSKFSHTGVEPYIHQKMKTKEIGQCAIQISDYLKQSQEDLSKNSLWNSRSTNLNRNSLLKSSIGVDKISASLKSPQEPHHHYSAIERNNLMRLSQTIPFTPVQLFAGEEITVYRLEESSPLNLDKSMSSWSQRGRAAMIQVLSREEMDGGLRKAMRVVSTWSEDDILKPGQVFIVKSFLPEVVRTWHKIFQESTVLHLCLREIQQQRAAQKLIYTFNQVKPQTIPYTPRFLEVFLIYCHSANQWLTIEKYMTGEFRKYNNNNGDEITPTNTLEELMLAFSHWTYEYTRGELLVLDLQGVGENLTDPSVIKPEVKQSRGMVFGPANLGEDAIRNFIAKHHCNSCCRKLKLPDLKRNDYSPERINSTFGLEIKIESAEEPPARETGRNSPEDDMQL
UniProt Q923J1: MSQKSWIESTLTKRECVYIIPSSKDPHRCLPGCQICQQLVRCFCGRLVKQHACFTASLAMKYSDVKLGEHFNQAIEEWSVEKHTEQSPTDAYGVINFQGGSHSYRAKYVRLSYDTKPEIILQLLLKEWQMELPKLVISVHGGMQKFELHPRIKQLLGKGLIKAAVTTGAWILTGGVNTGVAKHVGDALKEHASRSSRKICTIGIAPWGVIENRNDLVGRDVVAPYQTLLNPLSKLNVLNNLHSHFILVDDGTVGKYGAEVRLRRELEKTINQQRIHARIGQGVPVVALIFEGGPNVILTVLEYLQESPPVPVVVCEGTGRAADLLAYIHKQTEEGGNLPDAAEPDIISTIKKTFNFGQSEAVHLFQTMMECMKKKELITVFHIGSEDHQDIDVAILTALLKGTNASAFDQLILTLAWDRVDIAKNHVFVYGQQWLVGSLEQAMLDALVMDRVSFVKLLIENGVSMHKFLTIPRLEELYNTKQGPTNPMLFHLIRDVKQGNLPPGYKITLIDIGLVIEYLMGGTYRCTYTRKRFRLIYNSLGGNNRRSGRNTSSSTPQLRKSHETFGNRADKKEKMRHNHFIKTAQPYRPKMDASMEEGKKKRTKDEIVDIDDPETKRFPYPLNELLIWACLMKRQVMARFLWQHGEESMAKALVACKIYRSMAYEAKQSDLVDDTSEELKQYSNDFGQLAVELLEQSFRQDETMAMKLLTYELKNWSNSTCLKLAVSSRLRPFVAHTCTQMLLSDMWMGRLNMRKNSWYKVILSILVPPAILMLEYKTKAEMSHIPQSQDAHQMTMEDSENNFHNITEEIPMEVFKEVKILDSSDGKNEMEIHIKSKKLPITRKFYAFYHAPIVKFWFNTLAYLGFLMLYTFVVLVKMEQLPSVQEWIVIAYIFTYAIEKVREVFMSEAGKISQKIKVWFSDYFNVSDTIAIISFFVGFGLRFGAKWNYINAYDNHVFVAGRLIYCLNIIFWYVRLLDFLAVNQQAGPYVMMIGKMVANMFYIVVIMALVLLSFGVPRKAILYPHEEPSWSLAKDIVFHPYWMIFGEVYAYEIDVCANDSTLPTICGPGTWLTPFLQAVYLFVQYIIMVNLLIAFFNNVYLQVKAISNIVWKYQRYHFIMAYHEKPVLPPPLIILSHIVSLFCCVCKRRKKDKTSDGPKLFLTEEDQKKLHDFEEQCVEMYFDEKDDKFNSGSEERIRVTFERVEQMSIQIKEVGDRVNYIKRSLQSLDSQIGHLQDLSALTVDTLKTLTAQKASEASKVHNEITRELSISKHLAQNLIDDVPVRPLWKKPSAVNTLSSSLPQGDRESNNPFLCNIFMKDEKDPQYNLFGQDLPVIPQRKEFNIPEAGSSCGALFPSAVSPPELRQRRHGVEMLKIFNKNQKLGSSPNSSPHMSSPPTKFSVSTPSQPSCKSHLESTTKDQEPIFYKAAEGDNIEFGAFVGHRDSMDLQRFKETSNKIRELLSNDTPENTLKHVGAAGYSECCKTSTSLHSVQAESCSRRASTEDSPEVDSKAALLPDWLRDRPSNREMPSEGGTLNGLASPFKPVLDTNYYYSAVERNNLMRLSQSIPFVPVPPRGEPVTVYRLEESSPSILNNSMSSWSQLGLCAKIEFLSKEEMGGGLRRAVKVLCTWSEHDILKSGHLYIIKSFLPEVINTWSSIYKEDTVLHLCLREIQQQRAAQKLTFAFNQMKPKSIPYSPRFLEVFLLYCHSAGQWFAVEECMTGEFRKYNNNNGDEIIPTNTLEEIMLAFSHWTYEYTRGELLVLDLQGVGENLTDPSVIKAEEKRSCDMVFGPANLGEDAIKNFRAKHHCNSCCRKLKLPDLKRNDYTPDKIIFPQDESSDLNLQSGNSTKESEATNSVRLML
UniProt Q9NRU3: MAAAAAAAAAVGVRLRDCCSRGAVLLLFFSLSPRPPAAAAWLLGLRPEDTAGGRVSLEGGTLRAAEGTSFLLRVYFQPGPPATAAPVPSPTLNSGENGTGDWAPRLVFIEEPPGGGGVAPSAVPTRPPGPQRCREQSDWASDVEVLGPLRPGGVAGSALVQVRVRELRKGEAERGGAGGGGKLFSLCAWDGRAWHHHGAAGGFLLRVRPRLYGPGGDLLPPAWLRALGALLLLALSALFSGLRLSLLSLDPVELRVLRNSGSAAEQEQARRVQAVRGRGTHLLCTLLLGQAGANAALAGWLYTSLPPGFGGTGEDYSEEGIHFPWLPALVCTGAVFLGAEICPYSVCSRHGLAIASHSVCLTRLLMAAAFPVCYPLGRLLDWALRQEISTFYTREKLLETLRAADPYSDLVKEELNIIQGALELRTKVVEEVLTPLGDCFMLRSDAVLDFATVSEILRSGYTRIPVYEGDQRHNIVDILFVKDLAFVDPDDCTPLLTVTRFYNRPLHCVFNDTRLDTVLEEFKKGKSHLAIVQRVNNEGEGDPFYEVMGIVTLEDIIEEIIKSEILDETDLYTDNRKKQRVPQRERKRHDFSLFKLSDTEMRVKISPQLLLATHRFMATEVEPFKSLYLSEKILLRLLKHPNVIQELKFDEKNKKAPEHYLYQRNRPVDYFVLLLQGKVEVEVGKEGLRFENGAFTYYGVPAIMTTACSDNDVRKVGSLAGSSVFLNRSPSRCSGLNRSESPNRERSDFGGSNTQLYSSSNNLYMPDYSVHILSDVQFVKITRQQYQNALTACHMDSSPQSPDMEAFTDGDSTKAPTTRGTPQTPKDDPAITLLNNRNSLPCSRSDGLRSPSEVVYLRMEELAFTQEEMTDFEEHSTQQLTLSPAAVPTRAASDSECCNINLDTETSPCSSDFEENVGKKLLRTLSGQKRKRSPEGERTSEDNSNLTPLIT

T1: FLAG-tagged human CNNM4 (pCMV-4A) (human) (UniProt Q6P4Q7)
T1 sequence: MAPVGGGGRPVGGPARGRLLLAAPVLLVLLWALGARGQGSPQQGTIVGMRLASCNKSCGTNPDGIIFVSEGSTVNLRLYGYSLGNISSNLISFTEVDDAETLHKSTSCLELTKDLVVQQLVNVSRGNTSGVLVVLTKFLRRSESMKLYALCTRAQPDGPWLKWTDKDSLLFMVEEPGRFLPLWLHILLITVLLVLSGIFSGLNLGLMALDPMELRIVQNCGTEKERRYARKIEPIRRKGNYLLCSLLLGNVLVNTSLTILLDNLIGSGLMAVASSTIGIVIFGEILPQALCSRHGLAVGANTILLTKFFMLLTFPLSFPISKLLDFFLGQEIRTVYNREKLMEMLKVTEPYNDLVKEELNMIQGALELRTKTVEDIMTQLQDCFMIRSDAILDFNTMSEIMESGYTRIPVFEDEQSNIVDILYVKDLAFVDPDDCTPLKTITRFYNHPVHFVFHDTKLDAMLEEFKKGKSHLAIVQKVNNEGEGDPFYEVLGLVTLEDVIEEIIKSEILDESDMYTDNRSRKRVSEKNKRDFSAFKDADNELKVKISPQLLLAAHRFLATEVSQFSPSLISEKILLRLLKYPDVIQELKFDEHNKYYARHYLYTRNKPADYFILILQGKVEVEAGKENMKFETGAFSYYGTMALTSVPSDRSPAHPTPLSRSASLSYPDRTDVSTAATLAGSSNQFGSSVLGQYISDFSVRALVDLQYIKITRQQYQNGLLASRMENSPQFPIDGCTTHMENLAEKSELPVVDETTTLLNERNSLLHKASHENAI


Experiments:
[1] = molecular target: T1, FLAG-tagged human CNNM4 (pCMV-4A) (human); test: co-IP; FLAG-CNNM isoforms individually expressed in HEK-293T cells and immunoprecipitated, blots for native CNNM isoforms (S16 Fig A-D)
[2] = molecular target: HA-TRPM6 (pcDNA5-FRT-TO-HA-TRPM6) (UniProt Q9BX84); test: co-IP; HA-tagged channel coexpressed with FLAG-tagged CNNM1-4 in HEK-293T cells, immunoprecipitated overnight with HA-agarose; lysis buffer 50 mM TRIS (pH 7.4), 150 mM NaCl, 1% Igepal 630, 4°C; growth medium with or without 20 mM MgCl2 (Fig 1A)
[3] = molecular target: HA-tagged TRPM7 (pcDNA5-FRT-TO-HA-TRPM7) (mouse) (UniProt Q923J1); test: as above
[4] = molecular target: HA-tagged mouse TRPM7 expressed from the recombinant adenovirus pAd/CMV/V5-SR-TRPM7 (Ad-TRPM7-HA) (mouse) (UniProt Q923J1); test: co-IP; HA-TRPM7 expressed in RPTEC/TERT cells by transduction with Ad-TRPM7-HA, immunoprecipitated with HA-agarose, blot for native CNNM3

Molecule | binding [1] | binding [2] | binding [3] | binding [4]
native CNNM1 (endogenous, HEK-293T) (from UniProt Q9NRU3 1-951) | binds |  |  | 
FLAG-tagged human CNNM3 (pCMV-4A) (protein, UniProt Q8NE01 1-707) MAAAVAAAGRLGWLFAALCLGNAAGEAAPGPRVLGFCLEEDGAAGAGWVRGGAARDTPDATFLLRLFGPGFANSSWSWVAPEGAGCREEAASPAGEWRALLRLRLRAEAVRPHSALLAVRVEPGGGAAEEAAPPWALGLGAAGLLALAALARGLQLSALALAPAEVQVLRESGSEAERAAARRLEPARRWAGCALGALLLLASLAQAALAVLLYRAAGQRAVPAVLGSAGLVFLVGEVVPAAVSGRWTLALAPRALGLSRLAVLLTLPVALPVGQLLELAARPGRLRERVLELARGGGDPYSDLSKGVLRCRTVEDVLTPLEDCFMLDASTVLDFGVLASIMQSGHTRIPVYEEERSNIVDMLYLKDLAFVDPEDCTPLSTITRFYNHPLHFVFNDTKLDAVLEEFKRGKSHLAIVQKVNNEGEGDPFYEVLGLVTLEDVIEEIIRSEILDESEDYRDTVVKRKPASLMAPLKRKEEFSLFKVSDDEYKVTISPQLLLATQRFLSREVDVFSPLRISEKVLLHLLKHPSVNQEVRFDESNRLATHHYLYQRSQPVDYFILILQGRVEVEIGKEGLKFENGAFTYYGVSALTVPSSVHQSPVSSLQPIRHDLQPDPGDGTHSSAYCPDYTVRALSDLQLIKVTRLQYLNALLATRAQNLPQSPENTDLQVIPGSQTRLLGEKTTTAAGSSHSRPGVPVEGSPGRNPGV |  | binds | binds | 
native CNNM3 of RPTEC/TERT1 cells (protein, UniProt Q8NE01 1-707) MAAAVAAAGRLGWLFAALCLGNAAGEAAPGPRVLGFCLEEDGAAGAGWVRGGAARDTPDATFLLRLFGPGFANSSWSWVAPEGAGCREEAASPAGEWRALLRLRLRAEAVRPHSALLAVRVEPGGGAAEEAAPPWALGLGAAGLLALAALARGLQLSALALAPAEVQVLRESGSEAERAAARRLEPARRWAGCALGALLLLASLAQAALAVLLYRAAGQRAVPAVLGSAGLVFLVGEVVPAAVSGRWTLALAPRALGLSRLAVLLTLPVALPVGQLLELAARPGRLRERVLELARGGGDPYSDLSKGVLRCRTVEDVLTPLEDCFMLDASTVLDFGVLASIMQSGHTRIPVYEEERSNIVDMLYLKDLAFVDPEDCTPLSTITRFYNHPLHFVFNDTKLDAVLEEFKRGKSHLAIVQKVNNEGEGDPFYEVLGLVTLEDVIEEIIRSEILDESEDYRDTVVKRKPASLMAPLKRKEEFSLFKVSDDEYKVTISPQLLLATQRFLSREVDVFSPLRISEKVLLHLLKHPSVNQEVRFDESNRLATHHYLYQRSQPVDYFILILQGRVEVEIGKEGLKFENGAFTYYGVSALTVPSSVHQSPVSSLQPIRHDLQPDPGDGTHSSAYCPDYTVRALSDLQLIKVTRLQYLNALLATRAQNLPQSPENTDLQVIPGSQTRLLGEKTTTAAGSSHSRPGVPVEGSPGRNPGV |  |  |  | binds
FLAG-tagged mouse CNNM2 (pCMV-4A) (protein, UniProt Q3TWN3 1-875) MIGCGACEPEVKMAGGQAAAALPTWKMAARRSLSARGRGVLQAAAGRLLPLLLLSCCWGAGGCTAAGENEETVIIGLRLEDTNDVSFMEGGALRVSERTRVKLRVYGQNINNETWSRIAFTEHERRRHTPSERGLGGPAPPEPDSGPQRCGIRTSDIIILPHIILNRRTSGIIEIEIKPLRKMEKSKSYYLCTSLSTPALGAGGSGSASGTVGGKGGAGVAGLPPPPWAETTWIYHDGEDTKMIVGEEKKFLLPFWLQVIFISLLLCLSGMFSGLNLGLMALDPMELRIVQNCGTEKEKNYAKRIEPVRRQGNYLLCSLLLGNVLVNTTLTILLDDIAGSGLVAVVVSTIGIVIFGEIVPQAICSRHGLAVGANTIFLTKFFMMMTFPASYPVSKLLDCVLGQEIGTVYNREKLLEMLRVTDPYNDLVKEELNIIQGALELRTKTVEDVMTPLRDCFMITGEAILDFNTMSEIMESGYTRIPVFEGERSNIVDLLFVKDLAFVDPDDCTPLKTITKFYNHPLHFVFNDTKLDAMLEEFKKGKSHLAIVQRVNNEGEGDPFYEVLGIVTLEDVIEEIIKSEILDETDLYTDNRTKKKVAHRERKQDFSAFKQTDSEMKVKISPQLLLAMHRFLATEVEAFSPSQMSEKILLRLLKHPNVIQELKYDEKNKKAPECYLYQRNKPVDYFVLILQGKVEVEAGKEGMKFEASAFSYYGVMALTASPVPLSLSRTFVVSRTEVLAAGSPGENKSPPRPCGLNHSDSLSRSDRIDAMTPTLGSSNNQLSSSFLQVYIPDYSVRALSDLQFVKISRQQYQNALMASRMDKTPQSSDSENTKIELTLTELHDGLPDETANLLNEQNCVSHNKANHSLHSEGAI |  | no binding | binds | 
FLAG-tagged human CNNM4 (pCMV-4A) (protein, UniProt Q6P4Q7 1-775) MAPVGGGGRPVGGPARGRLLLAAPVLLVLLWALGARGQGSPQQGTIVGMRLASCNKSCGTNPDGIIFVSEGSTVNLRLYGYSLGNISSNLISFTEVDDAETLHKSTSCLELTKDLVVQQLVNVSRGNTSGVLVVLTKFLRRSESMKLYALCTRAQPDGPWLKWTDKDSLLFMVEEPGRFLPLWLHILLITVLLVLSGIFSGLNLGLMALDPMELRIVQNCGTEKERRYARKIEPIRRKGNYLLCSLLLGNVLVNTSLTILLDNLIGSGLMAVASSTIGIVIFGEILPQALCSRHGLAVGANTILLTKFFMLLTFPLSFPISKLLDFFLGQEIRTVYNREKLMEMLKVTEPYNDLVKEELNMIQGALELRTKTVEDIMTQLQDCFMIRSDAILDFNTMSEIMESGYTRIPVFEDEQSNIVDILYVKDLAFVDPDDCTPLKTITRFYNHPVHFVFHDTKLDAMLEEFKKGKSHLAIVQKVNNEGEGDPFYEVLGLVTLEDVIEEIIKSEILDESDMYTDNRSRKRVSEKNKRDFSAFKDADNELKVKISPQLLLAAHRFLATEVSQFSPSLISEKILLRLLKYPDVIQELKFDEHNKYYARHYLYTRNKPADYFILILQGKVEVEAGKENMKFETGAFSYYGTMALTSVPSDRSPAHPTPLSRSASLSYPDRTDVSTAATLAGSSNQFGSSVLGQYISDFSVRALVDLQYIKITRQQYQNGLLASRMENSPQFPIDGCTTHMENLAEKSELPVVDETTTLLNERNSLLHKASHENAI |  | no binding | binds | 
